In a collection of fitness landscapes (doi:10.1016/j.celrep.2020.107928):
Over roughly 81,000 sequences, “one-hybrid fitness for binding NBS DNA” has its median near -0.1; the highest 2% begin near 0.36. The list shows a part of the results.

B1: Caulobacter ParB omega fusion; a variant is named by its letters at X, in order, B8GW30 (parent)
chain: MESVVVGEPGMSEGRRGLGRGLSALLGEVDAAPAQAPGEQLGGSREAPIEILQRNPDQPRRTFREEDLEDLSNSIREKGVLQPILVRPSPDTAGEYQIVAGERAWRAAQRAGLKTVPIMVRELDDLAVLEIGIIENVQRADLNVLEEALSYKVLMEKFERTQENIAQTIGKSXSHVANXMRLLXLPDEVQSYLVSGELTAXHARAIAAAADPVALAKQIIEGGLSVRETEALARKAPNLSAGKSKGGRPPRVKDTDTQALESDLSSVLGLDVSIDHRGSTGTLTITYATLEQLDDLCNRLTRGI

Variants of: B1
Assay: one-hybrid fitness for binding NBS DNA (the Noc-binding site; scaled: cognate 1, non-cognate 0); higher = stronger binding
Conditions: with NBS DNA site
Outline: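 The reporter was HIS3, with the binding site 19 bp from the promoter, in E. coli USO used for bacterial one-hybrid selection of Caulobacter ParB libraries with four specificity codons randomised. Growth was on M9 lacking histidine, with 0.1 mM IPTG and 5 mM 3-AT, for 48 hours at 37°C. Illumina sequencing covered plasmids before and after selection; three replicate libraries were pooled and variants with under 10 reads dropped. A fitness score is the log change in variant-to-wild-type read ratio, rescaled to the cognate and non-cognate references.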

Variant	one-hybrid fitness for binding NBS DNA
PWAC	≤ 0.2
WDNS	≤ 0.2
WSAS	≤ 0.2
YPIL	≤ 0.2
LQGG	≤ 0.2
KFAG	≤ 0.2
ADFT	≤ 0.2
ADSC	≤ 0.2
PASR	≤ 0.2
GPTG	≤ 0.2
SPWA	≤ 0.2
CANS	≤ 0.2
GREE	≤ 0.2
WTYR	≤ 0.2
HSYK	≤ 0.2
DGYR	≤ 0.2
KKNY	≤ 0.2
PWNF	≤ 0.2
ARPK	≤ 0.2
MIHS	≤ 0.2
RVQS	0.357
FLYK	≤ 0.2
RHNS	0.505
TFTP	≤ 0.2
LRIC	≤ 0.2

Variant	one-hybrid fitness for binding NBS DNA
TTRW	≤ 0.2
TRIY	≤ 0.2
HIWM	≤ 0.2
TNLS	≤ 0.2
SYWD	≤ 0.2
HMAW	≤ 0.2
RSNL	≤ 0.2
YLTM	≤ 0.2
HLQV	≤ 0.2
RPLS	≤ 0.2
VSSE	≤ 0.2
WSGG	≤ 0.2
RLVA	≤ 0.2
DFAM	≤ 0.2
TCNC	≤ 0.2
YLAL	≤ 0.2
PGRR	≤ 0.2
HVYV	≤ 0.2
VEDG	≤ 0.2
YTAC	≤ 0.2
MVHQ	≤ 0.2
DCRA	≤ 0.2
AGHR	≤ 0.2
TVKI	≤ 0.2
NVIR	≤ 0.2

Variant	one-hybrid fitness for binding NBS DNA
CSQW	≤ 0.2
RSYD	≤ 0.2
YPKG	≤ 0.2
YPTI	≤ 0.2
RTAW	≤ 0.2
SRES	≤ 0.2
EFET	≤ 0.2
RIQY	≤ 0.2
EQYC	≤ 0.2
RHEN	≤ 0.2
QLGC	≤ 0.2
ARGA	≤ 0.2
LYND	≤ 0.2
GLWS	≤ 0.2
EHCR	≤ 0.2
RGEW	≤ 0.2
VKKV	≤ 0.2
GTPT	≤ 0.2
PQTK	≤ 0.2
VAGG	≤ 0.2
PLER	≤ 0.2
QHCW	≤ 0.2
TYEN	≤ 0.2
RNVM	≤ 0.2
GSGL	≤ 0.2

Variant	one-hybrid fitness for binding NBS DNA
GGNS	≤ 0.2
QTYM	≤ 0.2
RCDM	≤ 0.2
LMWA	≤ 0.2
PLWI	≤ 0.2
TTHS	≤ 0.2
RCNE	≤ 0.2
SSLQ	≤ 0.2
ANRI	≤ 0.2
RESI	≤ 0.2
QVLL	≤ 0.2
KMVW	≤ 0.2
VKVV	≤ 0.2
AFKT	≤ 0.2
SVQY	≤ 0.2
CCTL	≤ 0.2
DTLL	≤ 0.2
HNFD	≤ 0.2
QRHY	0.553
WLHC	≤ 0.2
RFTC	≤ 0.2
CSFS	≤ 0.2
RGEC	≤ 0.2
